Data as given in the supplement of paper PMC12217912.
Some of the results follow. The full chains were built here from the parent and the listed change. Inactive controls read about 0.05.

B1: TEV protease; numbered along this chain (parent)
chain: MGESLFKGPRDYNPISSSICHLTNESDGHTTSLYGIGFGPFIITNKHLFRRNNGTLVVQSLHGVFKVKDTTTLQQHLVDGRDMIIIRMPKDFPPFPQKLKFREPQREERICLVTTNFQTKSMSSMVSDTSCTFPSGDGIFWKHWIQTKDGQCGSPLVSTRDGFIVGIHSASNFTNTNNYFTSVPKNFMELLTNQEAQQWVSGWRLNADSVLWGGHKVFMVKPEEPFQPVKEATQL

Variants of: B1
Assay: raw area under fraction-flipped curve 0-4 h after induction (AUC4h, not background-subtracted), DNA-recorder readout of cleavage of the substrate (dimensionless); higher = more cleavage of the substrate by the protease variant
Conditions: temperature: 34 °C; time window: 0-4 h after rhamnose induction
Protocol: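 In vivo DNA recorder in E. coli TOP10(DE3) ΔrhaA at 34 °C. Each TEVp single-site mutant (parent TEVp 0) is paired with a single-site variant of the 7-mer TEVs (canonical ENLYFQ|S). The substrate sits between flexible linkers in a Bxb1-sfGFP-TEVs-SsrA fusion, so cleavage stabilises Bxb1 and speeds flipping of a recombination array, read by NGS. The value is the raw area under the fraction-flipped curve over 0-4 h after rhamnose induction (AUC4h), with ≥20 reads per time point. It is not background-subtracted; inactive controls average about 0.047.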
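Further: Bxb1 expression induced with 0.2% (w/v) L-rhamnose at OD600 near 0.5, cultures sampled hourly, flipped fraction per protease–substrate barcode pair counted by paired-end Illumina sequencing.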

Row | Variant | area with substrate ENLAFQS | area with substrate ENLCFQS | area with substrate ENLDFQS | area with substrate ENLFFQS | area with substrate ENLHFQS | area with substrate ENLIFQS | area with substrate ENLKFQS | area with substrate ENLNFQS | area with substrate ENLQFQS | area with substrate ENLRFQS | area with substrate ENLVFQS | area with substrate ENLWFQS | area with substrate ENLEFQS | area with substrate ENLLFQS | area with substrate ENLMFQS | area with substrate ENLPFQS | area with substrate ENLSFQS | area with substrate ENLGFQS | area with substrate ENLTFQS
1 | MGESLFKGPRDYTPISSSICHLTNESDGHTTSLYGIGFGPFIITNKHLFRRNNGTLVVQSLHGVFKVKDTTTLQQHLVDGRDMIIIRMPKDFPPFPQKLKFREPQREERICLVTTNFQTKSMSSMVSDTSCTFPSGDGIFWKHWIQTKDGQCGSPLVSTRDGFIVGIHSASNFTNTNNYFTSVPKNFMELLTNQEAQQWVSGWRLNADSVLWGGHKVFMVKPEEPFQPVKEATQL [N13T] | 0.0713 | 0.0737 | 0.0567 | 0.0663 | 0.0761 | 0.079 | 0.0721 | 0.07 | 0.0663 | 0.0692 | 0.0762 | 0.075 | – | – | – | – | – | – | –
2 | MGESLFKGPSDYNPISSSICHLTNESDGHTTSLYGIGFGPFIITNKHLFRRNNGTLVVQSLHGVFKVKDTTTLQQHLVDGRDMIIIRMPKDFPPFPQKLKFREPQREERICLVTTNFQTKSMSSMVSDTSCTFPSGDGIFWKHWIQTKDGQCGSPLVSTRDGFIVGIHSASNFTNTNNYFTSVPKNFMELLTNQEAQQWVSGWRLNADSVLWGGHKVFMVKPEEPFQPVKEATQL [R10S] | 0.0755 | 0.0648 | 0.063 | 0.0772 | 0.0595 | 0.0709 | 0.0803 | 0.0624 | – | 0.0663 | 0.0718 | – | 0.0468 | 0.0693 | 0.0765 | 0.0552 | 0.0671 | – | –
3 | MGESLFKGPRDYNPISSSICHLTNESDGHTTSLYGIGFGPFIITNKHLFRRNNGTLVVQSLHGCFKVKDTTTLQQHLVDGRDMIIIRMPKDFPPFPQKLKFREPQREERICLVTTNFQTKSMSSMVSDTSCTFPSGDGIFWKHWIQTKDGQCGSPLVSTRDGFIVGIHSASNFTNTNNYFTSVPKNFMELLTNQEAQQWVSGWRLNADSVLWGGHKVFMVKPEEPFQPVKEATQL [V64C] | 0.0589 | – | 0.0627 | 0.0925 | 0.0745 | 0.0881 | 0.0774 | 0.0721 | 0.0728 | 0.0785 | 0.0925 | – | 0.071 | – | 0.0829 | 0.0658 | 0.07 | – | –
4 | MGESLFKGPRDYNPISSSICHLTNESDGHTTSLYGIGFGPFIITNKHLFRRNNGTLVVQSLHGVFKVKDTTTLQQHLVDGRDMIIIRMPKDFPPFPQKLKFREPQDEERICLVTTNFQTKSMSSMVSDTSCTFPSGDGIFWKHWIQTKDGQCGSPLVSTRDGFIVGIHSASNFTNTNNYFTSVPKNFMELLTNQEAQQWVSGWRLNADSVLWGGHKVFMVKPEEPFQPVKEATQL [R106D] | 0.0571 | 0.0715 | 0.0605 | 0.0886 | 0.0536 | 0.0967 | 0.0745 | 0.0574 | 0.0715 | 0.0795 | – | – | 0.0492 | 0.0491 | – | 0.0693 | 0.0721 | 0.0663 | 0.106
5 | MGESLFKGPRDYNPITSSICHLTNESDGHTTSLYGIGFGPFIITNKHLFRRNNGTLVVQSLHGVFKVKDTTTLQQHLVDGRDMIIIRMPKDFPPFPQKLKFREPQREERICLVTTNFQTKSMSSMVSDTSCTFPSGDGIFWKHWIQTKDGQCGSPLVSTRDGFIVGIHSASNFTNTNNYFTSVPKNFMELLTNQEAQQWVSGWRLNADSVLWGGHKVFMVKPEEPFQPVKEATQL [S16T] | 0.0696 | 0.0818 | 0.0615 | 0.0795 | 0.082 | 0.0909 | 0.0584 | 0.0585 | 0.0546 | 0.0707 | 0.0946 | 0.0691 | 0.0706 | 0.0754 | 0.0987 | 0.0644 | 0.0596 | 0.0605 | –
6 | MGESLFKGPRDYNPISSSICHLTNESDGHTTSLYGIGFGPFIITNKHLFRRNNGTLVVQSLHGVFKVKDTTTLQQHLVDGRDMIIIRMPKDFPPFPQKLKFREPQREERICLVTTNFQTKSMSSMVSETSCTFPSGDGIFWKHWIQTKDGQCGSPLVSTRDGFIVGIHSASNFTNTNNYFTSVPKNFMELLTNQEAQQWVSGWRLNADSVLWGGHKVFMVKPEEPFQPVKEATQL [D128E] | 0.0712 | 0.0754 | 0.0652 | 0.1 | – | – | – | 0.0895 | – | 0.0568 | – | 0.0824 | 0.0563 | – | – | – | – | 0.0701 | –
7 | MGESLFKGPRDYNPISSSICHLTNESDGHTTSLYGIGFGPFIITNKHLFRRNNGTLVVQSLHGVFKVKDTTTLQPHLVDGRDMIIIRMPKDFPPFPQKLKFREPQREERICLVTTNFQTKSMSSMVSDTSCTFPSGDGIFWKHWIQTKDGQCGSPLVSTRDGFIVGIHSASNFTNTNNYFTSVPKNFMELLTNQEAQQWVSGWRLNADSVLWGGHKVFMVKPEEPFQPVKEATQL [Q75P] | 0.0561 | 0.0318 | 0.0767 | 0.0674 | 0.0496 | 0.0691 | 0.0644 | 0.0659 | 0.0667 | 0.0518 | 0.0695 | 0.0526 | 0.0547 | – | 0.0744 | – | 0.0589 | 0.0758 | 0.0682
8 | MGESLFKGPRDYNPISSSICHLTNESDGHTTSLYGIGFGPFIITNKHLFRRNNGTLVVQSLHGVFKVKDTTTLQQHLVDGRDMIIIRMPKDFPPFPQKLKFREPQREERICSVTTNFQTKSMSSMVSDTSCTFPSGDGIFWKHWIQTKDGQCGSPLVSTRDGFIVGIHSASNFTNTNNYFTSVPKNFMELLTNQEAQQWVSGWRLNADSVLWGGHKVFMVKPEEPFQPVKEATQL [L112S] | 0.0588 | 0.0604 | 0.072 | 0.0674 | 0.0545 | – | 0.0626 | 0.035 | 0.0322 | 0.0647 | 0.106 | 0.0442 | 0.0201 | – | – | 0.0666 | 0.0752 | 0.0577 | –
9 | MGESLFKGPRDYNPISSSICHLTNESDGHTTSLYGIGFGPFIITNKHLFRRNNGTLVVQSLHGVFKVKDTTTLQQHLVDGRDMIIIRMPKDFPPFPQKLKFREPQREERICNVTTNFQTKSMSSMVSDTSCTFPSGDGIFWKHWIQTKDGQCGSPLVSTRDGFIVGIHSASNFTNTNNYFTSVPKNFMELLTNQEAQQWVSGWRLNADSVLWGGHKVFMVKPEEPFQPVKEATQL [L112N] | 0.0759 | – | 0.0719 | 0.0601 | 0.0665 | 0.0684 | 0.0776 | 0.0659 | 0.0686 | 0.0619 | 0.061 | 0.0572 | 0.0496 | 0.0502 | 0.0564 | 0.0541 | 0.0502 | 0.0647 | –
